Reference: ChEMBL document CHEMBL4888484, “Replenishing the malaria drug discovery pipeline: Screening and hit evaluation of the MMV Hit Generation Library 1 (HGL1) against asexual blood stage Plasmodium falciparum ,using a nano luciferase reporter read-out” (2022)
Hit rate of the full screen: of about 150,000 compounds, about 540 (0.36%) showed an effect of 50% or more. The list shows a part of the results.

Each compound was assayed on Plasmodium falciparum (assay: Primary screen in NF54 nanoGlo assay, in single point, at 2uM, 72h; a lower Z score goes with more inhibition). Conditions: timepoint 72 hour.
Assay type: functional, Erythrocyte
In the case of `CCn1ccnc1CN(C)C(=O)C1(N2C[C@@H](C)O[C@@H](C)C2)Cc2ccccc2C1`, the “% Inhibition” value is reported as -5% and the Z score is reported as 0.53.
For `CCCc1[nH]nc(CCc2ccc(OC)cc2)c1NC(=O)c1cccc(F)c1`, the “% Inhibition” value was -15% and the Z score was 1.87.
With `CC(C)(C)[C@H](CCO)NC(=O)c1ccc(F)cc1Cl` the “% Inhibition” value was -20% and the Z score was 2.29.
With `Cc1ccc([C@H]2C[C@@H](C(F)(F)F)n3ncc(C(=O)NCC4CCCO4)c3N2)cc1` (stereo partly specified) the “% Inhibition” value was -7% and the Z score was 1.17.
In the case of `COc1ccc(S(=O)(=O)N2Cc3cncnc3C2)cc1C`, the “% Inhibition” value is reported as -10% and the Z score is reported as 1.72.
In the case of `CC(C)(C)c1cn2nc(N3CC[C@H](N4CCCC4)C3)sc2n1`, the “% Inhibition” value is reported as -3% and the Z score is reported as 0.46.
`CCC(C)NC(=O)C(NC(=O)c1cccc(C)c1)C1CCN(C(=O)COC)CC1` (stereo unspecified) was tested, and the “% Inhibition” value was -6% and the Z score was 0.59.
`CCC[C@H]1CCCN1Cc1cnc(N(C)CC(=O)O)nc1` was tested, and the “% Inhibition” value was 0% and the Z score was -0.04.
In the case of `O=c1c2ccncc2ncn1[C@H]1CCCc2ccccc21`, the “% Inhibition” value is reported as -14% and the Z score is reported as 2.18.
For `CCOc1ccc([C@@H]2CC(c3ccc(C)cc3C)=NN2C(=O)CN2CCOCC2)cc1`, the “% Inhibition” value was -16% and the Z score was 1.55.
`C[C@@H](C(=O)O)N(Cc1cccc(F)c1)Cc1cn(C)nn1` was tested, and the “% Inhibition” value was 10% and the Z score was -1.35.
`COc1cccc(CNC2CC2)c1OCc1ccc(C)cc1` was tested, and the “% Inhibition” value was -1% and the Z score was 0.08.
In the case of `CC(=O)N1N=C(c2c(F)cccc2Cl)O[C@H]1COc1ccc(C(C)(C)C)cc1`, the “% Inhibition” value is reported as -14% and the Z score is reported as 1.77.
With `O=c1ccccn1CCCc1noc(NCC2(c3cccc(F)c3)CC2)n1` the “% Inhibition” value was 5% and the Z score was -0.67.
For `Cc1nccn1CCNC(=O)[C@H]1CCN(c2cnn(Cc3ccccc3)c(=O)c2)C1`, the “% Inhibition” value was -9% and the Z score was 1.34.
`CN(C)C(=O)c1cncc(NC[C@@]2(C)CCCO2)n1` was tested, and the “% Inhibition” value was -4% and the Z score was 0.77.
With `c1ccc(-c2csc(NCCc3ccccn3)n2)cc1` the “% Inhibition” value was -6% and the Z score was 0.71.
In the case of `CCn1cc([C@H](CNC(=O)c2ccccc2)N2CCC(c3ccccc3)=N2)c(C)n1`, the “% Inhibition” value is reported as -5% and the Z score is reported as 0.73.
`CN(C(=O)CC(C)(C)c1ccccc1)S(C)(=O)=O` was tested, and the “% Inhibition” value was -1% and the Z score was 0.21.
`CC(C)CN1CC[C@H](c2nc3ccccc3o2)C1` was tested, and the “% Inhibition” value was 29% and the Z score was -3.28.
`O=C(CC1CCCCCC1)N1CCC(N2CCCS2(=O)=O)CC1` was tested, and the “% Inhibition” value was -5% and the Z score was 0.77.
In the case of `CN(CC[C@H]1CCCO1)C(=O)c1c[nH]nn1`, the “% Inhibition” value is reported as -6% and the Z score is reported as 0.81.
In the case of `COc1ccc2nc(O)c(CCC(=O)N3CCCC3)cc2c1`, the “% Inhibition” value is reported as -20% and the Z score is reported as 3.74.
With `O=C(NCc1cn(-c2ccsc2)nn1)NC1CCCCC1` the “% Inhibition” value was 6% and the Z score was -0.95.
`O=C(NCCCc1nccs1)[C@@H]1[C@H]2[C@@H]3CC[C@@H](C3)[C@@H]12` was tested, and the “% Inhibition” value was -6% and the Z score was 0.83.
`CN(C)c1ncc2c(n1)CCC[C@@H]2NC1CCCC1` was tested, and the “% Inhibition” value was -7% and the Z score was 0.82.
For `COc1ccc(CN(C)C(=O)NCc2nnc([C@@H]3CCCO3)[nH]2)cc1C`, the “% Inhibition” value was 1% and the Z score was -0.14.
For `Cc1nc([C@@H]2CCCCCN2C(=O)c2cccc(CN(C)C)c2)no1`, the “% Inhibition” value was 0% and the Z score was -0.03.
In the case of `COc1ccccc1-c1nc(NCCN(C)C)nc2nn(-c3ccc(Cl)cc3)c(N)c12`, the “% Inhibition” value is reported as 0% and the Z score is reported as 0.02.
In the case of `O[C@@]1(Cc2cccc(Cl)c2)CCN(Cc2n[nH]c3c2COCC3)C1`, the “% Inhibition” value is reported as -4% and the Z score is reported as 0.62.
For `O=C(N[C@@H](CO)c1cc(F)c(F)c(F)c1)c1ncccc1O`, the “% Inhibition” value was -3% and the Z score was 0.24.
In the case of `O=C(CN1CCN(Cc2ccc3c(c2)CCO3)CC1)Nc1nc2ccccc2s1`, the “% Inhibition” value is reported as 5% and the Z score is reported as -1.
`CC(C)n1ncc2cc(NS(=O)(=O)c3ccc(S(C)(=O)=O)cc3)cnc21` was tested, and the “% Inhibition” value was -12% and the Z score was 1.57.
With `Cc1ccc([C@H](CNC(=O)Nc2cccs2)OCCO)cc1` the “% Inhibition” value was 0% and the Z score was -0.06.
For `COc1cc2c(cc1OC)C1=C[C@@](O)(C(F)(F)F)C(=O)N1C(C)(C)C2`, the “% Inhibition” value was 3% and the Z score was -0.45.
`N#Cc1cccc(CN2C[C@@H](Oc3ccccc3)C[C@H]2C(N)=O)c1` was tested, and the “% Inhibition” value was -12% and the Z score was 1.52.
For `CCn1cc(CNc2cccnc2)c2ccccc21`, the “% Inhibition” value was 2% and the Z score was -0.27.
With `O=C(c1ccccc1Cl)N1CCC2(CC1)N[C@@H](Cc1ccccc1)C(=O)N2CCc1ccccn1` the “% Inhibition” value was -9% and the Z score was 0.82.
With `COc1ccc(C(=O)N(CC(=O)N(Cc2cccn2Cc2ccc(Br)cc2)C2CCCCC2)C(C)C)c(OC)c1` the “% Inhibition” value was -11% and the Z score was 1.61.
In the case of `O=C(CCc1ccc2c(c1)CCO2)ON1C(=O)CCC1=O`, the “% Inhibition” value is reported as -18% and the Z score is reported as 2.2.
For `Cc1cc(-c2ccccc2)nc2sc(-c3ccccc3)c([O-])[n+]12`, the “% Inhibition” value was 32% and the Z score was -4.69.
For `COCC(=O)N(C)[C@@H](C)C1=CCCN(Cc2csc(C)n2)C1`, the “% Inhibition” value was -2% and the Z score was 0.44.
In the case of `O=C(O)c1ccc(CN2CCC[C@H]2Cn2ccnn2)cc1Cl`, the “% Inhibition” value is reported as -3% and the Z score is reported as 0.52.
For `CC[C@H]1COCCN1Cc1cc(Cl)c(OC)cc1OC`, the “% Inhibition” value was -4% and the Z score was 0.46.
For `CS(=O)(=O)NCC[C@H]1CCCN(Cc2ccc3nonc3c2)C1`, the “% Inhibition” value was -7% and the Z score was 1.01.
In the case of `Cc1cc(OCC(=O)C(C)(C)C)ccc1C#N`, the “% Inhibition” value is reported as -4% and the Z score is reported as 0.78.
In the case of `Cn1c(C(=O)NCc2cccc(F)c2)cc2ccncc21`, the “% Inhibition” value is reported as 1% and the Z score is reported as -0.15.
For `Cc1ccc(-c2nc(-c3cccc(OCc4ccc(F)c(F)c4)c3)no2)cc1`, the “% Inhibition” value was -10% and the Z score was 1.98.
`CCCn1ncc(C(=O)N2CCn3cccc3[C@@H]2CC)c1C` was tested, and the “% Inhibition” value was -3% and the Z score was 0.42.
In the case of `CCc1nc2cc(-c3cccc(C(=O)NC4CCOCC4)c3)ccc2o1`, the “% Inhibition” value is reported as 2% and the Z score is reported as -0.33.
`CCOC(=O)C1CCN(C(=O)c2ccc(N3C(=O)CCS3(=O)=O)cc2Cl)CC1` was tested, and the “% Inhibition” value was 0% and the Z score was 0.04.
In the case of `CCC(=O)N1CCc2cc(N3C[C@@H](C(=O)N4CCN(c5ccccn5)CC4)CC3=O)ccc21`, the “% Inhibition” value is reported as -11% and the Z score is reported as 2.22.
`Cc1cccc(N2N=C(C(=O)NCc3ccccn3)CCC2=O)c1` was tested, and the “% Inhibition” value was -8% and the Z score was 0.96.
With `O=S(=O)(C1CC1)N1CCCN(C2CCC2)CC1` the “% Inhibition” value was -17% and the Z score was 2.95.
In the case of `COc1ccc(-c2cnc3ccccc3n2)cc1NC(=O)c1ccc(Cl)cc1`, the “% Inhibition” value is reported as -9% and the Z score is reported as 1.61.
With `Cc1ccc(O[C@H]2CCCN(C(=O)CCc3c(C)noc3C)C2)nn1` the “% Inhibition” value was -10% and the Z score was 1.77.
With `O=C(NC[C@]1(O)CCCN(C(=O)c2cc(C3CC3)n[nH]2)CC1)N1CCCC1` the “% Inhibition” value was 5% and the Z score was -0.44.
`N#Cc1cc(-c2ccccc2)oc1N(S(=O)(=O)c1ccccc1)S(=O)(=O)c1ccccc1` was tested, and the “% Inhibition” value was 1% and the Z score was -0.13.
For `COCCNC(=O)[C@@H](C)[C@@H]1CC[C@@]2(C)CC[C@H](NC(=O)CC(C)(C)C)[C@@H](C)[C@@H]2[C@H]1O`, the “% Inhibition” value was 31% and the Z score was -3.58.
In the case of `O=C(NCc1cccnc1N1CCOCC1)C1CCN(c2ccc(-n3cncn3)nn2)CC1`, the “% Inhibition” value is reported as -7% and the Z score is reported as 1.02.
`Cc1nnc(-c2ccc3ccn(CC(=O)N4CCN(c5ncccn5)CC4)c3c2)o1` was tested, and the “% Inhibition” value was -5% and the Z score was 0.59.
`C[C@H](NC(=O)c1cc[nH]c1C1CCC1)c1cncs1` was tested, and the “% Inhibition” value was 1% and the Z score was -0.26.
In the case of `Nc1ccc2nc3n(c(=O)c2c1)CCCC3`, the “% Inhibition” value is reported as -11% and the Z score is reported as 1.34.
In the case of `COc1cccc2[nH]c(C(=O)NCc3ccc4c(c3)CCN4C(=O)c3ccccc3)cc12`, the “% Inhibition” value is reported as -4% and the Z score is reported as 0.83.
In the case of `CCC(Nc1cccc(COCC2CCCCO2)c1)C(N)=O` (stereo unspecified), the “% Inhibition” value is reported as -9% and the Z score is reported as 1.24.
For `CN1CCN(c2ccccc2NC[C@]2(c3cccc(F)c3)CCOC2)CC1`, the “% Inhibition” value was 6% and the Z score was -0.75.
With `O=C1CCC[C@H](CC(=O)N2CCn3c(cnc3C(F)(F)F)C2)N1` the “% Inhibition” value was 5% and the Z score was -0.94.
With `CC(=O)N1CCC(C(=O)Nc2nc3c(ccc4ccccc43)s2)CC1` the “% Inhibition” value was -3% and the Z score was 0.28.
With `C#CCOc1ccc(CCNCc2cn(C)nc2-c2ccncc2)cc1` the “% Inhibition” value was -4% and the Z score was 0.59.
With `Cc1cccc(CN2CCC(N3CCC(C(=O)N(C)[C@H]4CCOC4)CC3)CC2)n1` the “% Inhibition” value was -12% and the Z score was 1.55.
In the case of `Cc1nc(C(=O)NCc2ccc(Cl)cc2)co1`, the “% Inhibition” value is reported as -10% and the Z score is reported as 1.76.
In the case of `CC(C)(C)OC(=O)NC[C@H](NC(=O)Nc1ccc2c(c1)OCCO2)C1CCCCC1`, the “% Inhibition” value is reported as -2% and the Z score is reported as 0.33.
In the case of `CCOC(=O)c1sc(NC2=NCCCCC2)nc1C`, the “% Inhibition” value is reported as -13% and the Z score is reported as 1.89.
`Cc1c[nH]c(CN(C)CC2(C)COC2)c(C)c1=O` was tested, and the “% Inhibition” value was 8% and the Z score was -1.6.
`C=CCCC(=O)N1C[C@H](c2ccccc2)[C@H](C(=O)O)C1` was tested, and the “% Inhibition” value was -9% and the Z score was 1.05.
In the case of `Cc1cc(C(=O)N2CC3OCCN(Cc4ccccc4)C3C2)[nH]n1` (stereo unspecified), the “% Inhibition” value is reported as -5% and the Z score is reported as 0.62.
For `CCN(C(=O)CCN1CCCO1)C1CCCCCC1`, the “% Inhibition” value was -10% and the Z score was 2.06.
In the case of `COc1ccc2cc3n(c2c1)C[C@@](C)(C(=O)NC1CCCCCC1)N(CCN1CCCCCC1)C3=O`, the “% Inhibition” value is reported as 2% and the Z score is reported as -0.31.
For `CCOc1nccn2c(CNC(=O)COc3ccccc3C)nnc12`, the “% Inhibition” value was 8% and the Z score was -0.98.
For `Cn1ncc2c(N3CCO[C@H](c4ccccc4)C3)ncnc21`, the “% Inhibition” value was -4% and the Z score was 0.54.
`COc1ccc(CN2C[C@@H](CO)[C@H](NC(=O)c3cccnc3)C2)cc1` was tested, and the “% Inhibition” value was -14% and the Z score was 2.34.
With `COc1ncnc(C)c1-c1ccc(C(=O)N[C@@H](CC(C)C)C(N)=O)cc1` the “% Inhibition” value was -3% and the Z score was 0.46.
In the case of `CCN(CC)C(=O)c1cncn1-c1cccc(-c2ccc(OC)c(OC)c2)c1`, the “% Inhibition” value is reported as 6% and the Z score is reported as -0.58.
